# Measurements taken from the supplement of paper PMC8728848.
# Some of the results follow.
# B1: MGL6A (Homo sapiens) (protein)
# chain: MTRTYENFQYLENKVKVQGFKNGPLPLQSLLQRLCSGPCHLLLSLGLGLLLLVIICVVGFQNSKFQRDLVTLRTDFSNFTSNTVAEIQALTSQGSSLEETIASLKAEVEGFKQERQAVHSEMLLRVQQLVQDLKKLTCQVATLNNNGEEASTEGTCCPVNWVEHQDSCYWFSHSGMSWAEAEKYCQLKNAHLVVINSREEQNFVQKYLGSAYTWMGLSDPEGAWKWVDGTDYATGFQNWKPGQPDDWQGHGLGGGEDCAHFHPDGRWNDDVCQRPYHWVCEAGLGQTSQESH
# Assays:
# Test in all cases: glycan array binding signal (z-score within array); higher = stronger binding
# Details in all cases: glycan notation: IUPAC condensed, linker removed
# [1] = biological target: Gal3S(b1-3)[Fuc(a1-4)]GlcNAc
# Summary of the method: (§1)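 Arrays were curated from the Consortium for Functional Glycomics database, 3228 in total, and kept only where the protein sequence was available. Binding is expressed as a within-array Z-score. This score was averaged across arrays of the same protein sequence at different concentrations or buffers and across linkers, and negative values can be read as non-binding.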
# Gal3S(b1-4)Glc = biological target: Gal3S(b1-4)Glc
# Summary of the method: as §1
# Gal3S(b1-4)Glc6S = biological target: Gal3S(b1-4)Glc6S
# Summary of the method: as §1
# Gal3S(b1-4)GlcNAc = biological target: Gal3S(b1-4)GlcNAc
# Summary of the method: as §1
# Gal3S(b1-4)GlcNAc6S = biological target: Gal3S(b1-4)GlcNAc6S
# Summary of the method: as §1
# [2] = biological target: Gal3S(b1-4)[Fuc(a1-3)]Glc
# Summary of the method: as §1
# [3] = biological target: Gal3S(b1-4)[Fuc(a1-3)]Glc6S
# Summary of the method: as §1
# [4] = biological target: Gal3S(b1-4)[Fuc(a1-3)]GlcNAc
# Summary of the method: as §1
# [5] = biological target: Gal3S(b1-4)[Fuc(a1-3)]GlcNAc6S
# Summary of the method: as §1
# Gal3S4S(b1-4)GlcNAc = biological target: Gal3S4S(b1-4)GlcNAc
# Summary of the method: as §1
# Gal3S6S(b1-4)GlcNAc = biological target: Gal3S6S(b1-4)GlcNAc
# Summary of the method: as §1
# Gal3S6S(b1-4)GlcNAc6S = biological target: Gal3S6S(b1-4)GlcNAc6S
# Summary of the method: as §1
# Gal4S(b1-4)GlcNAc = biological target: Gal4S(b1-4)GlcNAc
# Summary of the method: as §1
# Gal4S6S(b1-4)GlcNAc = biological target: Gal4S6S(b1-4)GlcNAc
# Summary of the method: as §1
# Gal6P(b1-4)GlcNAc = biological target: Gal6P(b1-4)GlcNAc
# Summary of the method: as §1
# Gal6S(b1-3)GlcNAc = biological target: Gal6S(b1-3)GlcNAc
# Summary of the method: as §1
# Gal6S(b1-3)GlcNAc6S = biological target: Gal6S(b1-3)GlcNAc6S
# Summary of the method: as §1
# Gal6S(b1-4)Glc = biological target: Gal6S(b1-4)Glc
# Summary of the method: as §1
# Gal6S(b1-4)Glc6S = biological target: Gal6S(b1-4)Glc6S
# Summary of the method: as §1
# Gal6S(b1-4)GlcNAc = biological target: Gal6S(b1-4)GlcNAc
# Summary of the method: as §1
# Gal6S(b1-4)GlcNAc6S = biological target: Gal6S(b1-4)GlcNAc6S
# Summary of the method: as §1
# GalNAc(a1-3)Gal = biological target: GalNAc(a1-3)Gal
# Summary of the method: as §1
# GalNAc(a1-3)GalNAc = biological target: GalNAc(a1-3)GalNAc
# Summary of the method: as §1
# [6] = biological target: GalNAc(a1-3)GalNAc(b1-3)Gal(a1-4)Gal(b1-4)Glc
# Summary of the method: as §1
# [7] = biological target: GalNAc(a1-3)GalNAc(b1-3)Gal(a1-4)Gal(b1-4)GlcNAc
# Summary of the method: as §1
# GalNAc(b1-3)Gal = biological target: GalNAc(b1-3)Gal
# Summary of the method: as §1
# [8] = biological target: GalNAc(b1-3)Gal(a1-4)Gal(b1-4)GlcNAc
# Summary of the method: as §1
# [9] = biological target: GalNAc(b1-3)Gal(a1-4)Gal(b1-4)GlcNAc(b1-3)Gal(b1-4)Glc
# Summary of the method: as §1
# [10] = biological target: GalNAc(b1-3)Gal(a1-6)Gal(b1-4)Glc
# Summary of the method: as §1
# GalNAc(b1-3)GalNAc = biological target: GalNAc(b1-3)GalNAc
# Summary of the method: as §1
# GalNAc(b1-3)GlcNAc = biological target: GalNAc(b1-3)GlcNAc
# Summary of the method: as §1
# GalNAc(b1-4)Gal(b1-4)Glc = biological target: GalNAc(b1-4)Gal(b1-4)Glc
# Summary of the method: as §1
# GalNAc(b1-4)GlcNAc = biological target: GalNAc(b1-4)GlcNAc
# Summary of the method: as §1
# [11] = biological target: GalNAc(b1-4)GlcNAc(b1-2)Man
# Summary of the method: as §1
# [12] = biological target: GalNAc(b1-4)GlcNAc(b1-2)Man(a1-3)[GalNAc(b1-4)GlcNAc(b1-2)Man(a1-6)]Man(b1-4)GlcNAc(b1-4)GlcNAc
# Summary of the method: as §1
# [13] = biological target: GalNAc(b1-4)GlcNAc(b1-3)GalNAc(b1-4)GlcNAc
# Summary of the method: as §1
# GalNAc(b1-4)GlcNAc6S = biological target: GalNAc(b1-4)GlcNAc6S
# Summary of the method: as §1
binder,measurement,setting,value
B1,glycan array binding signal (z-score),[1],-0.287
same,glycan array binding signal (z-score),Gal3S(b1-4)Glc,-0.172
same,glycan array binding signal (z-score),Gal3S(b1-4)Glc6S,-0.092
same,glycan array binding signal (z-score),Gal3S(b1-4)GlcNAc,-0.148
same,glycan array binding signal (z-score),Gal3S(b1-4)GlcNAc6S,-0.372
same,glycan array binding signal (z-score),[2],-0.3
same,glycan array binding signal (z-score),[3],-0.241
same,glycan array binding signal (z-score),[4],-0.236
same,glycan array binding signal (z-score),[5],-0.255
same,glycan array binding signal (z-score),Gal3S4S(b1-4)GlcNAc,-0.237
same,glycan array binding signal (z-score),Gal3S6S(b1-4)GlcNAc,-0.187
same,glycan array binding signal (z-score),Gal3S6S(b1-4)GlcNAc6S,-0.255
same,glycan array binding signal (z-score),Gal4S(b1-4)GlcNAc,-0.35
same,glycan array binding signal (z-score),Gal4S6S(b1-4)GlcNAc,-0.186
same,glycan array binding signal (z-score),Gal6P(b1-4)GlcNAc,-0.28
same,glycan array binding signal (z-score),Gal6S(b1-3)GlcNAc,-0.259
same,glycan array binding signal (z-score),Gal6S(b1-3)GlcNAc6S,-0.311
same,glycan array binding signal (z-score),Gal6S(b1-4)Glc,-0.28
same,glycan array binding signal (z-score),Gal6S(b1-4)Glc6S,-0.313
same,glycan array binding signal (z-score),Gal6S(b1-4)GlcNAc,-0.258
same,glycan array binding signal (z-score),Gal6S(b1-4)GlcNAc6S,-0.326
same,glycan array binding signal (z-score),GalNAc(a1-3)Gal,2.73
same,glycan array binding signal (z-score),GalNAc(a1-3)GalNAc,0.623
same,glycan array binding signal (z-score),[6],0.958
same,glycan array binding signal (z-score),[7],0.335
same,glycan array binding signal (z-score),GalNAc(b1-3)Gal,4.13
same,glycan array binding signal (z-score),[8],1
same,glycan array binding signal (z-score),[9],3.34
same,glycan array binding signal (z-score),[10],4.47
same,glycan array binding signal (z-score),GalNAc(b1-3)GalNAc,1.21
same,glycan array binding signal (z-score),GalNAc(b1-3)GlcNAc,3.67
same,glycan array binding signal (z-score),GalNAc(b1-4)Gal(b1-4)Glc,-0.268
same,glycan array binding signal (z-score),GalNAc(b1-4)GlcNAc,1.53
same,glycan array binding signal (z-score),[11],3.46
same,glycan array binding signal (z-score),[12],2.98
same,glycan array binding signal (z-score),[13],3.79
same,glycan array binding signal (z-score),GalNAc(b1-4)GlcNAc6S,2.66
